# In the supplement of paper PMC3334620:
# In all, about 33,000 sequences were measured (“E-score (-0.5 to 0.5)”: median about -0.016, highest 2% from about 0.31 on). The list shows a part of the results.
# Biological target: Cst6 (UniProt P40535)
# Experiment: PBM E-score (8-mer binding enrichment) (E-score (-0.5 to 0.5)); higher = stronger / more preferred TF binding; most listed sequences are background and not binding sites
# Settings: protein concentration: 200 nM; construct: GST-DNA-binding domain
# Protocol: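 Universal 'all 10-mer' protein binding microarrays (Agilent AMADID 015681) probed with GST-tagged S. cerevisiae TFs (full-length or DBD) made by in vitro transcription/translation (PURExpress), about 100-200 nM. Bound TF was detected with fluorescent anti-GST. Each ungapped 8-mer (which stands for itself and its reverse complement) is scored by the PBM enrichment score (E-score), a modified Wilcoxon-Mann-Whitney statistic from -0.5 to +0.5, computed with the Universal PBM Analysis Suite. Scale: above 0.35 generally sequence-specific binding.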
row,Sequence,PBM E-score
1,CATAAGGA,0.0192
2,GCGCGTAC,0.058
3,CAGCCCGG,-0.245
4,AACGACCT,-0.0345
5,CTGTGTGA,0.173
6,CATTGCGG,-0.103
7,TTCATGAA,0.21
8,GCGTGTGA,0.0327
9,CGCTTATC,0.0432
10,ACCCGTAG,-0.254
11,ACAACCTC,-0.0921
12,CAGGGGCG,-0.0903
13,ATCGCAAG,-0.115
14,CTAAAGTA,-0.067
15,GGTGTACA,0.0859
16,AACGCCTC,-0.0434
17,CCAGTAAC,-0.106
18,ATTGCCGA,-0.0119
19,AGCCTGCA,-0.00355
20,CTATATAG,0.00104
21,CCAATTTA,0.196
22,AGAATGGA,-0.00827
23,CTTCCCCA,-0.0198
24,AAACGGGA,-0.0748
25,AAAAATCG,0.0277

row,Sequence,PBM E-score
1,AAGCTCCT,-0.288
2,AAGTTCCG,-0.0702
3,GTGCAGGA,-0.08
4,TACTGAGA,-0.106
5,ACTTCTTA,0.149
6,GCCCCGAA,-0.0904
7,CTATGATA,0.191
8,CAGCTCTA,-0.081
9,AAAGCAGG,-0.0575
10,GCATCCCA,-0.217
11,GGTTGGTA,0.0978
12,CATGGGGG,-0.361
13,TGCCGGCA,-0.012
14,CAGCGCGA,0.0117
15,CGCTACCG,-0.185
16,GGTCTCTA,-0.163
17,AGCATAGC,-0.048
18,GGAGTAAC,-0.129
19,AGCGATCA,-0.0526
20,ACCGGCAC,-0.097
21,ACAGTGAG,-0.0684
22,CTTAGACC,-0.0553
23,AATTACCT,0.175
24,CTTAGCTC,-0.147
25,GGGCATTA,-0.112

row,Sequence,PBM E-score
1,CCTTCCAC,-0.228
2,GCTCACTA,0.0251
3,AAAATCTT,0.117
4,AGAGGGAG,-0.177
5,TGACCCCA,-0.18
6,GGCTAGCC,-0.472
7,ACGGGCTG,-0.21
8,AGTTAACG,0.155
9,TCGGTAGA,0.103
10,CAGTCTAA,0.11
11,GTCGTTTA,0.105
12,AGATGATG,0.346
13,ACCCCAGT,-0.168
14,CAGGAAGG,-0.114
15,CTTCCATA,-0.0671
16,CAGGTAGA,-0.0818
17,GGCCGTTA,0.0215
18,GGGGGGCA,-0.343
19,AGGAGGCG,-0.116
20,GAGGCACA,-0.0227
21,TAAGCGTA,-0.00291
22,CGCGGTTC,0.0154
23,AGGGGCTC,-0.195
24,TACCCTCA,-0.14
25,GCCCAGTA,-0.143

row,Sequence,PBM E-score
1,AAGGTACC,-0.203
2,GTTACAAA,0.182
3,CCAGCGCA,-0.255
4,ACTTGTAC,0.0373
5,CCTCTTCC,-0.298
6,GACGAACC,-0.112
7,ATGGTAGC,-0.138
8,GAGATATA,0.106
9,ATTCCTTC,0.0154
10,CACGTCGC,-0.0365
11,GCAGGAGC,-0.239
12,ATCCACAA,-0.0491
13,ACGGCAGT,0.241
14,CAGCTGAC,0.0776
15,CACACTCG,0.0419
16,CTATCGGC,-0.172
17,CGTTGTGC,0.0437
18,AAGGCGAC,-0.055
19,TAGATTAA,0.156
20,CCCCTGTA,-0.169
21,AACAATCC,0.204
22,CAATCAAA,0.0758
23,ACACTAAT,0.141
24,CGGCTGTC,-0.0915
25,CCCGGCTC,-0.3

row,Sequence,PBM E-score
1,CCTTCGAA,-0.136
2,CGAGCGTC,-0.0638
3,AGACTCTA,-0.169
4,CCGCCCGC,-0.0765
5,ATTATTGC,0.209
6,CCTTGTAA,0.14
7,AAGCCTCG,-0.00537
8,GATCAGAC,-0.142
9,CCAAACAA,0.123
10,ACACCATG,0.0535
11,ACGAATAC,0.167
12,AGTTGTGA,0.211
13,AATACGGC,0.324
14,GGAAACAA,0.0408
15,GGGGCCCC,-0.058
16,CTTCCGAC,-0.188
17,GTTTCGTA,0.198
18,ACCAACTC,-0.0108
19,ACGCCAGT,-0.0905
20,CTTATACC,-0.108
21,AGTCTAAA,-0.0714
22,CCAGAAAC,-0.0108
23,CACTTAAC,-0.0141
24,GTACGTTA,0.124
25,ACCTCCGT,-0.0629

row,Sequence,PBM E-score
1,ACAATCAG,0.177
2,CACGGCAC,0.356
3,GGGTCTTA,-0.0279
4,CTTGTGGC,-0.13
5,ATTATAAT,0.259
6,CCGCGCGA,0.255
7,GTTATATA,0.22
8,TGTACGAA,0.0537
9,CTCGAGAC,0.00278
10,ATCAACTC,0.0417
11,CGGGGCGA,-0.0977
12,AGTACGAT,0.143
13,CAGTAGGC,0.0297
14,AACCCAAG,-0.0264
15,AAGCGGCA,0.231
16,GAAGCAAA,0.011
17,AAGTTGCA,0.0207
18,CGTTAGGA,0.0369
19,CGGTTTAA,0.0305
20,CATCAGAC,0.0226
21,CACTATTA,0.136
22,ACGCCCAT,-0.181
23,ACCCATGG,-0.144
24,CGATATTA,0.248
25,CCATGAGG,-0.159

row,Sequence,PBM E-score
1,GCAGAAAA,0.171
2,CGGAAGAC,-0.113
3,CTTTAGCA,-0.179
4,GCCTTAAA,0.151
5,ACATGTGG,0.0263
6,AAGTTGGA,0.0831
7,CGCGGCCC,0.09
8,GAGCTGAC,0.151
9,CTTTCATC,-0.0143
10,TCATACGA,0.198
11,GCGATCGA,0.162
12,ATCAAACG,0.161
13,ACTTCGGC,0.0436
14,ATTGAAAA,0.31
15,ATCCCGAT,-0.0988
16,GCTAATTA,0.166
17,CAGATTCA,-0.105
18,ACCCTTCC,-0.149
19,GTGGTAAA,0.0101
20,GATTCTGC,0.0379
21,ACCGTGCA,0.00574
22,CCAGAATA,0.164
23,AAAAACTC,0.165
24,AACATCTA,-0.0563
25,CCAACTAA,-0.0265

row,Sequence,PBM E-score
1,CACGGTCC,-0.284
2,CCACTTCA,-0.197
3,ATTACTGC,0.142
4,GTAGAGAA,0.00912
5,AGCTCCCA,-0.281
6,AGACTCTG,-0.124
7,AAAAATGT,0.139
8,CCTGTAAC,0.0347
9,GCCATAGC,0.0387
10,AAATCATC,0.175
11,AGGAAATC,0.0217
12,ACGTTGCG,0.0483
13,CCACAAAA,0.221
14,CCCAACAC,-0.221
15,ACTATAAT,0.12
16,CACTATGA,0.0196
17,AGCGGAAC,-0.0876
18,GGACAATA,0.06
19,ATAGCGGA,-0.107
20,CTAGCTTA,0.0979
21,ACTCGAGG,-0.16
22,AGAAAAAT,0.17
23,CCTTGCCG,-0.0564
24,GACAGCGC,-0.0199
25,TTATCCAA,0.162

row,Sequence,PBM E-score
1,GACGGAAC,0.0352
2,AGCAGTGG,-0.048
3,AGGTCTGA,0.0301
4,CTGCGACC,-0.358
5,AACGCCGA,0.23
6,GTTAGTGA,0.259
7,AGAATTGA,0.0248
8,ACGTGTGC,0.0207
9,AAAGTCGG,-0.144
10,AATGATCC,0.026
11,AGAACAAG,0.113
12,AAGTAGCT,-0.0483
13,GTTGTATA,0.212
14,AAGAGGCA,0.13
15,CCAAGCAA,-0.0563
16,CACGTGCC,0.0716
17,AGTTAGAG,-0.085
18,CTGTTTCC,-0.106
19,GCGGAGTA,-0.116
